Experimental data: paper PMC12820563
This is one part of the list. The list includes weakly bound sequences.

Molecular target: T1, MBP-FoxP3dN (UniProt Q99JB6)
T1 sequence: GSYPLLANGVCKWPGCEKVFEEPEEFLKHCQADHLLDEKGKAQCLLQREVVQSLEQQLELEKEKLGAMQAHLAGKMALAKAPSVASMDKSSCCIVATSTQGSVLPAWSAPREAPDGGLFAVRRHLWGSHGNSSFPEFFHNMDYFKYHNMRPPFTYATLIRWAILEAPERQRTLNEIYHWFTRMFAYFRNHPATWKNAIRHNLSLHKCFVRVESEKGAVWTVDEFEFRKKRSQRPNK
Test: PD-seq (MBP pull-down with sequencing)
Conditions: 20 mM Tris-HCl pH 7.5, 100 mM NaCl, 1.5 mM MgCl2, 0.4 uM protein, 0.1 uM dsDNA library, 30 min, room temperature, amylose pull-down; high values mean tight binding; double strand, one strand shown

Sequence	binding signal (RPM ratio (pull-down/input))
GATGATTGTTCTCCCAGCTGATGAATTCCCTTGATCGAGTAAACAAATTTTCCTAATCTTTCTGTTCAAGCGCCATCTAC	0.24
GATGATTGTTCTCCCAGCTGATGAATTAACGTGCTCGAGTAAACAAATTTTCCTAATCTTTCTGTTCAAGCGCCATCTAC	0.376
GATGATTGTTCTCCCAGCTGATGAATTCATCAGGTCGAGTAAACAAATTTTCCTAATCTTTCTGTTCAAGCGCCATCTAC	0.306
GATGATTGTTCTCCCAGCTGATGAATTCAGAGGGTCGAGTAAACAAATTTTCCTAATCTTTCTGTTCAAGCGCCATCTAC	0.25
GATGATTGTTCTCCCAGCTGATGAATTATTAACGTCGAGTAAACAAATTTTCCTAATCTTTCTGTTCAAGCGCCATCTAC	0.437
GATGATTGTTCTCCCAGCTGATGAATTCCGTGGTTCGAGTAAACAAATTTTCCTAATCTTTCTGTTCAAGCGCCATCTAC	0.92
GATGATTGTTCTCCCAGCTGATGAATTGTAATGATCGAGTAAACAAATTTTCCTAATCTTTCTGTTCAAGCGCCATCTAC	1.02
GATGATTGTTCTCCCAGCTGATGAATTTCAAACCTCGAGTAAACAAATTTTCCTAATCTTTCTGTTCAAGCGCCATCTAC	0.235
GATGATTGTTCTCCCAGCTGATGAATTATTTACCTCGAGTAAACAAATTTTCCTAATCTTTCTGTTCAAGCGCCATCTAC	2.68
GATGATTGTTCTCCCAGCTGATGAATTGCCATTATCGAGTAAACAAATTTTCCTAATCTTTCTGTTCAAGCGCCATCTAC	1.32
GATGATTGTTCTCCCAGCTGATGAATTCACTGCCTCGAGTAAACAAATTTTCCTAATCTTTCTGTTCAAGCGCCATCTAC	0.362
GATGATTGTTCTCCCAGCTGATGAATTCAGACGGTCGAGTAAACAAATTTTCCTAATCTTTCTGTTCAAGCGCCATCTAC	0.228
GATGATTGTTCTCCCAGCTGATGAATTTTCGATCTCGAGTAAACAAATTTTCCTAATCTTTCTGTTCAAGCGCCATCTAC	0.311
GATGATTGTTCTCCCAGCTGATGAATTGTACTTATCGAGTAAACAAATTTTCCTAATCTTTCTGTTCAAGCGCCATCTAC	1.19
GATGATTGTTCTCCCAGCTGATGAATTGATCACGTCGAGTAAACAAATTTTCCTAATCTTTCTGTTCAAGCGCCATCTAC	0.543
GATGATTGTTCTCCCAGCTGATGAATTAGCAGACTCGAGTAAACAAATTTTCCTAATCTTTCTGTTCAAGCGCCATCTAC	0.288

Sequence	binding signal (RPM ratio (pull-down/input))
GATGATTGTTCTCCCAGCTGATGAATTGTCCTCCTCGAGTAAACAAATTTTCCTAATCTTTCTGTTCAAGCGCCATCTAC	0.37
GATGATTGTTCTCCCAGCTGATGAATTCCGGCTGTCGAGTAAACAAATTTTCCTAATCTTTCTGTTCAAGCGCCATCTAC	0.302
GATGATTGTTCTCCCAGCTGATGAATTTTCTCACTCGAGTAAACAAATTTTCCTAATCTTTCTGTTCAAGCGCCATCTAC	0.291
GATGATTGTTCTCCCAGCTGATGAATTGTGACAGTCGAGTAAACAAATTTTCCTAATCTTTCTGTTCAAGCGCCATCTAC	0.817
GATGATTGTTCTCCCAGCTGATGAATTTATGGTGTCGAGTAAACAAATTTTCCTAATCTTTCTGTTCAAGCGCCATCTAC	3.64
GATGATTGTTCTCCCAGCTGATGAATTATGTAGGTCGAGTAAACAAATTTTCCTAATCTTTCTGTTCAAGCGCCATCTAC	1.28
GATGATTGTTCTCCCAGCTGATGAATTCCTTACCTCGAGTAAACAAATTTTCCTAATCTTTCTGTTCAAGCGCCATCTAC	0.252
GATGATTGTTCTCCCAGCTGATGAATTGTGAAGGTCGAGTAAACAAATTTTCCTAATCTTTCTGTTCAAGCGCCATCTAC	0.362
GATGATTGTTCTCCCAGCTGATGAATTGAATCCTTCGAGTAAACAAATTTTCCTAATCTTTCTGTTCAAGCGCCATCTAC	0.33
GATGATTGTTCTCCCAGCTGATGAATTATAGAGCTCGAGTAAACAAATTTTCCTAATCTTTCTGTTCAAGCGCCATCTAC	0.248
GATGATTGTTCTCCCAGCTGATGAATTGGTAAGTTCGAGTAAACAAATTTTCCTAATCTTTCTGTTCAAGCGCCATCTAC	0.45
GATGATTGTTCTCCCAGCTGATGAATTATCGGCATCGAGTAAACAAATTTTCCTAATCTTTCTGTTCAAGCGCCATCTAC	0.831
GATGATTGTTCTCCCAGCTGATGAATTGACCGATTCGAGTAAACAAATTTTCCTAATCTTTCTGTTCAAGCGCCATCTAC	0.269
GATGATTGTTCTCCCAGCTGATGAATTGAGAAGGTCGAGTAAACAAATTTTCCTAATCTTTCTGTTCAAGCGCCATCTAC	0.206
GATGATTGTTCTCCCAGCTGATGAATTTCGTTGGTCGAGTAAACAAATTTTCCTAATCTTTCTGTTCAAGCGCCATCTAC	1.76
